Laboratory results taken from PubChem BioAssay AID1347120 (National Center for Advancing Translational Sciences (NCATS), 2019).
The campaign covered roughly 390,000 compounds. About 930 (0.24%) were called active. This list was built around the results that the source calls inconclusive (neither active nor inactive); the mix of calls is not that of the screen. Calls follow the shape of the dose curve; as a rule, active = well fitted activation curve with a large enough effect; inconclusive = small, poorly fitted or top-dose-only effect; inactive = no such curve, though single readings can be large or run the other way. A potency beside an inconclusive call is a rough fit, not a confirmed value.

test: qHTS for Suppressors of FUS Proteinopathy: Primary screen using FUS-linked yeast assay; also: nearly all actives have a fitted effect of over 55% in size;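 as to growth rescue (activation): plate controls were DMSO vehicle for no effect and reference control for full effect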; settings: S. cerevisiae FUS-expressing, OD600, 24 h; Potency: growth rescue; growth rescue (activation): at 76.6 µM (top of the series)
How it was run: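 Galactose (2%) drives FUS expression in yeast precultured in raffinose; seeding density OD 0.005. Test compounds incubated 24hr at 30C and 99% humidity before absorbance at 600 nm was measured.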
Potency is read from the fitted curve at half-maximal effect; tags tell the direction and shape of the fitted curve.

SMILES | Potency | growth rescue (activation)
Cc1ccc(Cl)cc1N1CCN(C(=O)c2cccn2-c2nnc(N3CCCC3)s2)CC1 | inconclusive: 28.2 µM [activator, single point] | 
O=C(/C=C/c1ccccc1)CC(=O)c1ccccc1O | inconclusive: 31.6 µM [activator, partial curve, poor fit] | 
CCN(C(=O)c1cc(S(=O)(=O)N2CCc3ccccc32)cn1C)c1cccc(C)c1 | inconclusive: 44.7 µM [activator, single point] | 
COc1ccc(/C=C(\C#N)C(=O)Nc2cc(S(=O)(=O)N3CCOCC3)ccc2N2CCCC2)cc1 | inconclusive: 15.8 µM [activator, partial curve, poor fit] | 
Cc1ccc(NC(=O)COC(=O)CNC(=O)c2cccc([N+](=O)[O-])c2)cc1S(=O)(=O)N1CCCCCC1 | inconclusive: 31.6 µM [activator, partial curve, poor fit] | 
COc1cc(-c2nnn(CC(=O)NC3CCS(=O)(=O)C3)n2)ccc1OCc1ccccc1 (stereo not drawn) | inconclusive: 31.6 µM [activator, partial curve, poor fit] | 
O=C1NN=C(c2ccc(Cl)cc2)CC1c1cccc(Cl)c1 (stereo not drawn) | inconclusive: 2.51 µM [activator, full curve] | 
Cc1ccc(Cn2c(C(=O)O)c(CNCc3cccs3)c3ccc(C)cc32)cc1 | inconclusive: 28.2 µM [activator, single point] | 
CC(C)C[C@H]1CN([C@@H](CC(C)C)CN2CCC[C@@H]2CN2C(=S)NC[C@@H]2Cc2ccc(O)cc2)C(=S)N1CC1CCCCC1 | inconclusive: 28.2 µM [activator, partial curve, poor fit] | 
COc1cc(OC)cc(C2=Cc3ccccc3C(CC(C)=O)N2c2ccc(C#CCCO)cc2)c1 (stereo not drawn) | inconclusive: 44.7 µM [activator, single point] | 
CC(C)Oc1ccc(/C=C(\NC(=O)/C=C/c2ccco2)C(=O)NCCc2nc3ccccc3[nH]2)cc1 | inconclusive: 17.8 µM [activator, single point] | 
Cc1ccc(Cn2c(C(CO)Nc3nc(-c4ccc(Cl)c([N+](=O)[O-])c4)cs3)nc3ccccc32)cc1 (stereo not drawn) | inconclusive: 31.6 µM [activator, single point] | 
Cc1nn2c(NCc3ccccn3)cc(C(C)(C)C)nc2c1-c1ccccc1 | inconclusive: 2.24 µM [activator, full curve, poor fit] | 
Cn1c(=O)c2c(nc(CN3CCc4ccccc4C3)n2Cc2ccccc2F)n(C)c1=O | inconclusive: 39.8 µM [activator, single point] | 
COc1ccc(S(=O)(=O)N(C)C[C@H]2Oc3c(NC(=O)C4CCCCC4)cccc3C(=O)N([C@H](C)CO)C[C@@H]2C)cc1 | inconclusive: 25.1 µM [activator, single point] | 
CCc1ccccc1Nc1cc(C(=O)NC2CCC(C)CC2)c2ccccc2n1 (stereo not drawn) |  | inactive: -8.47%
C=CC[C@H](CC(=O)N(CCO)Cc1ccccc1)C(=O)N[C@H](COC(=O)[C@H](CC=C)CC(=O)OC(C)(C)C)Cc1ccccc1 | inconclusive: 50.1 µM [activator, single point] | 
N#Cc1c(C(F)(F)F)cc(-c2ccccc2)[nH]c1=O |  | inactive: 22.2%
CC(C)(C)C(=O)Nc1cc2nn(-c3ccccc3)nc2cc1Cl | inconclusive: 50.1 µM [activator, single point] | 
Cc1nn(-c2ccccc2)c(N2CCCC2)c1/C=N/NC(=O)c1cccc(S(=O)(=O)Nc2ccc(Cl)cc2)c1 | inconclusive: 12.6 µM [activator, partial curve, poor fit] | 
CC1CC(=S)Nc2ccccc2S1 (stereo not drawn) |  | inconclusive: 54.4% [activator]

SMILES | Potency | growth rescue (activation)
COc1ccccc1Cc1c(-c2cccc(Br)c2)nc2ccc(Br)cn12 | inconclusive: 50.1 µM [activator, single point] | 
CC(C)(C)N1C(=O)c2ccc(C(=O)NCc3ccco3)cc2C1=O | inconclusive: 10 µM [activator, partial curve, poor fit] | 
Cc1ccc(OCc2nnc(SCC(=O)Nc3ccc(S(=O)(=O)Nc4cc(C)nc(C)n4)cc3)n2Cc2ccco2)cc1 | inconclusive: 17.8 µM [activator, partial curve, poor fit] | 
Cc1ccc(Cn2c(CNS(=O)(=O)c3ccc(Cl)s3)nc3cccnc32)cc1 |  | inactive: -27.3%
CCc1ccc(-c2nc(-c3cc4ccccc4oc3=O)sc2C)cc1 |  | inactive: 15.1%
N#CC1(NC(=O)CSc2n[nH]c(-c3ccccc3)n2)CCCCC1 |  | inactive: 2.92%
CCC(c1nnnn1-c1ccc2c(c1)OCCO2)N1CCN(c2ccc(C(F)(F)F)cn2)CC1 (stereo not drawn) | inconclusive: 4.47 µM [activator, full curve, poor fit] | 
C(=N\n1cnnc1)/c1ccc(OCc2cccc3ccccc23)cc1 |  | inactive: 6.72%
CCc1ccc(NC(=O)C(=O)NCC2CCCN2S(=O)(=O)c2ccccc2)cc1 (stereo not drawn) | inconclusive: 15.8 µM [activator, partial curve] | 
O=C(CCNc1ccc(Cc2ccncc2)cc1)c1cccc([N+](=O)[O-])c1 | inconclusive: 44.7 µM [activator, partial curve, poor fit] | 
COc1ccccc1CNc1nc(Oc2cccc(F)c2)c2sccc2n1 | inconclusive: 31.6 µM [activator, single point] | 
Cc1ccc2nc(-c3ccco3)c(Cc3ccccc3)n2c1 |  | inactive: -5.69%
O=C(Cn1cc(C(=O)C2CCCCC2)c2ccccc21)NCC1CCCO1 (stereo not drawn) |  | inactive: 12.2%
CCCNC(=O)c1ccc(N2CCC3(CC2)CC(c2ccccc2)=NO3)c(NC(=O)c2ccccc2)c1 | inconclusive: 17.8 µM [activator, partial curve, poor fit] | 
CCCOc1ccc(CN(C(=O)c2nc(SC(C)C)ncc2Cl)C2CCS(=O)(=O)C2)cc1 (stereo not drawn) | active: 35.5 µM | 
O=c1[nH]c(C2CCN(S(=O)(=O)c3ccc4c(c3)OCCO4)CC2)nc2c1nnn2Cc1ccccc1 | inconclusive: 35.5 µM [activator, single point] | 
CC(C)c1ccc2oc(-c3cccc(NC(=O)c4ccc5c(c4)OCCO5)c3)nc2c1 |  | inactive: 4.94%
Cc1cccc(S(=O)Cc2ccc(C(=O)N3CCOCC3)o2)c1 (stereo not drawn) |  | inactive: 18.4%
CCOC(=O)c1c(C)nc2c(c1-c1cc(OC)ccc1OC)C(=O)c1ccccc1-2 |  | inactive: -11%
O=P(O)(CP(=O)(c1ccccc1)c1ccccc1)c1ccccc1O | inconclusive: 39.8 µM [activator, single point] | 
O=C(O)C(F)(F)S(=O)(=O)O |  | inactive: -11.9%

SMILES | Potency | growth rescue (activation)
Cc1ccccc1N/N=C/c1ccc(N2CCOCC2)cc1 | inconclusive: 7.94 µM [activator, full curve] | 
COc1ccc(S[C@]2(C(=O)N3CCN(C(C)=O)CC3)CC(=O)N[C@@H]2c2ccc(OC)cc2)cc1 |  | inactive: 12.1%
CN(c1ccccc1C(=O)Nc1cccc(Br)c1)S(=O)(=O)c1ccccc1 |  | inactive: 35.9%
CCN1c2cc(C)ccc2-n2cccc2C12CCN(C(=O)Nc1cc(OC)c(OC)c(OC)c1)CC2 | inconclusive: 44.7 µM [activator, single point] | 
CC(C)(C)C(=O)Nc1ccc(C(=O)N/N=C/c2ccccc2OC(=O)c2ccc(Cl)cc2)cc1 | active: 22.4 µM | 
CC(C)N(Cc1nnc(-c2ccccc2Br)o1)C(=O)c1cc(Cl)nc2ccccc12 | inconclusive: 50.1 µM [activator, single point] | 
C=CC[C@@H](CC(=O)NCCO)C(=O)N[C@H](COC(=O)[C@H](CC=C)CC(=O)OC(C)(C)C)Cc1c[nH]c2ccccc12 | inconclusive: 10 µM [activator, full curve] | 
CCOC(=O)C(C(C)=O)c1c(Br)c(O)c(O)c2c(C(=O)c3ccc(C)cc3)coc12 (stereo not drawn) | inconclusive: 28.2 µM [activator, single point] | 
O=C(NCCC1=CCCCC1)c1ccc2c(c1)N(Cc1ccccc1F)C(=O)c1ccccc1S2(=O)=O | inconclusive: 12.6 µM [activator, partial curve, poor fit] | 
CCOc1ccc(N2CC(NC(=O)Cc3ccccc3)CC2=O)cc1 (stereo not drawn) |  | inactive: 11.6%
Cc1nc(-c2cccnc2)sc1C(=O)Nc1cccc(C(F)(F)F)c1 |  | inactive: 35.5%
N#Cc1ccc(C(=O)Nc2nnc(-c3cccs3)o2)cc1 |  | inactive: -15.2%
COC(=O)N[C@@H]1C[C@H]2[C@@H]3CC[C@H]4C[C@@H](OC)CC[C@]4(C)[C@H]3CC[C@@]12C |  | inactive: 34.4%
CCCSc1ccc([C@@H]2[C@H]3C(=O)N(CC)C(=O)[C@H]3[C@]3(C(=O)OC)CCCN23)cc1 | inconclusive: 11.2 µM [activator, partial curve] | 
CO/N=C/NC(=O)c1c(OC)ccnc1Oc1ccccc1 |  | inconclusive: 52.5% [activator]
O=C(Nc1ccc2c(c1)OCCO2)C1CCN(C(=O)c2ccc(Br)cc2)CC1 | inconclusive: 17.8 µM [activator, partial curve] | 
CC1C/C(=N/Nc2nc3ccccc3[nH]2)CC(C)(C)C1 (stereo not drawn) |  | inactive: 15.1%
CCC1CCCCN1C(=O)Cn1c(=O)n(CCCCCC(=O)NCc2ccc(F)cc2)c(=O)c2sccc21 (stereo not drawn) | inconclusive: 5.62 µM [activator, single point] | 
CCc1cccc(NC(=O)Cn2cc(C(=O)c3ccncc3)c(=O)c3cc(C)c(C)cc32)c1 | inconclusive: 31.6 µM [activator, partial curve, poor fit] | 
Cc1cccc(C)c1Nc1nnc(SCC(=O)Nc2sccc2C#N)s1 | inconclusive: 50.1 µM [activator, single point] | 
CCCc1cc(=O)oc2cc3occ(C)c3cc12 | inconclusive: 35.5 µM [activator, partial curve, poor fit] | 
